This assay deals with Genome polyprotein (dengue virus type 2) (UniProt P29990).
The mark [1] stands for this setting: Thailand/16681/1984, Concentration 25.0 uM, Number of replicates 1.0.

In all, about 2,000 compounds went through this assay and about 110 (5.5%) showed an effect of 50% or more. The list shows a part of the results.

Regarding `COc1cc(CS(=O)(=O)C2CCN(C(=O)OCc3ccccc3)CC2)nc(N2CCNCC2)n1`, the inhibition stood at 0.45% (Thailand/16681/1984, Concentration 49.5 uM, Number of replicates 2.0, Standard deviation 0.29373022757389566 %); 1.39% (Thailand/16681/1984, Concentration 99.01 uM, Number of replicates 2.0, Standard deviation 0.01950977617569285 %); 2.52% (Thailand/16681/1984, Concentration 198.0 uM, Number of replicates 2.0, Standard deviation 0.5126730851747567 %).

As to `Cc1cnccc1NC(=O)c1coc2c1C(=O)NCCC2`, the inhibition reads like this: (Thailand/16681/1984, Concentration 49.5 uM, Number of replicates 2.0, Standard deviation 0.3757002107865962 %) -3.99%; (Thailand/16681/1984, Concentration 99.01 uM, Number of replicates 2.0, Standard deviation 5.049623529571674 %) -2.36%; (Thailand/16681/1984, Concentration 198.0 uM, Number of replicates 2.0, Standard deviation 1.011909544309998 %) -1.68%.

Turning to `Cc1cc(CO)c2cccc(Cc3cccc(C(=O)N4C[C@H](O)C[C@H]4C(=O)O)c3)c2n1`, the inhibition is, setting by setting: (Thailand/16681/1984, Concentration 49.95 uM, Number of replicates 2.0, Standard deviation 0.8573518667581825 %) -3.82%; (Thailand/16681/1984, Concentration 99.9 uM, Number of replicates 2.0, Standard deviation 0.6640344089557785 %) -0.89%.

For the compound `COc1cc(C(=O)Nc2cnc3ccccc3c2)nc(N2CCNCC2)n1`, the inhibition is, setting by setting: (Thailand/16681/1984, Concentration 49.5 uM, Number of replicates 2.0, Standard deviation 9.540542197549359 %) 4.46%; (Thailand/16681/1984, Concentration 99.01 uM, Number of replicates 2.0, Standard deviation 4.349736840709832 %) 6.31%; (Thailand/16681/1984, Concentration 198.0 uM, Number of replicates 2.0, Standard deviation 5.514135579540427 %) 7.41%.

Consider `CCn1ccnc(NC[C@H](c2ccccc2)c2c[nH]c3ccccc23)c1=O`, for which the inhibition is, setting by setting: (Thailand/16681/1984, Concentration 49.5 uM, Number of replicates 2.0, Standard deviation 0.39000028877484233 %) 0.466%; (Thailand/16681/1984, Concentration 99.01 uM, Number of replicates 2.0, Standard deviation 0.5001349035049478 %) 4.03%; (Thailand/16681/1984, Concentration 198.0 uM, Number of replicates 2.0, Standard deviation 0.5006118372426971 %) 7.21%.

Consider `CC(C)Cn1cccc(C(=O)Nc2ccnc3ccccc23)c1=O`, for which the inhibition runs as follows: (Thailand/16681/1984, Concentration 49.5 uM, Number of replicates 2.0, Standard deviation 3.05520009762039 %) 20.5%; (Thailand/16681/1984, Concentration 99.01 uM, Number of replicates 2.0, Standard deviation 21.78722513628885 %) 17%; (Thailand/16681/1984, Concentration 198.0 uM, Number of replicates 2.0, Standard deviation 20.398741213407295 %) 7.74%.

As to `O=Cc1ccc(N2CCC(C(=O)NCc3ccc(Cl)c(C(F)(F)F)c3)CC2)cc1`, the inhibition under setting [1] stood at 12.4%.

As for `CC(C)(CO)NC(=O)c1cc(Cl)cc(NC(=O)c2cc(-c3ccc(Cl)cc3)n[nH]2)c1`, the inhibition runs as follows: (Thailand/16681/1984, Concentration 49.5 uM, Number of replicates 2.0, Standard deviation 0.12694171370832513 %) 1.06%; (Thailand/16681/1984, Concentration 99.01 uM, Number of replicates 2.0, Standard deviation 0.3683389265193805 %) 1.45%; (Thailand/16681/1984, Concentration 198.0 uM, Number of replicates 2.0, Standard deviation 0.21850629000727306 %) 2.52%.

For the compound `COCCCN1CCC(NC(=O)C2CCN(c3ccc(C=O)cc3)CC2)CC1`, under setting [1], the inhibition was found to be 16.3%.

For the compound `Nc1ccc(Br)c2ncccc12`, the inhibition (Thailand/16681/1984, Concentration 49.95 uM, Number of replicates 2.0, Standard deviation 5.94009658152584 %) is -1.62% and the inhibition (Thailand/16681/1984, Concentration 99.9 uM, Number of replicates 2.0, Standard deviation 5.75336311473699 %) was 1.34%.

For the compound `CSCC[C@H](NC(=O)OC(C)(C)C)C(=O)N1CCC[C@H]1C(=O)NCc1ccncc1`, the inhibition runs as follows: (Thailand/16681/1984, Concentration 49.5 uM, Number of replicates 2.0, Standard deviation 3.0161954863268012 %) -1.64%; (Thailand/16681/1984, Concentration 99.01 uM, Number of replicates 2.0, Standard deviation 3.9521494343167394 %) -1.16%; (Thailand/16681/1984, Concentration 198.0 uM, Number of replicates 2.0, Standard deviation 3.4421447504149048 %) -1.03%.

As to `Cc1cc(CO)c2cccc(NC(=O)c3cnn(Cc4c(C)noc4C)c3)c2n1`, the inhibition is, setting by setting: (Thailand/16681/1984, Concentration 49.95 uM, Number of replicates 2.0, Standard deviation 0.8661234688702698 %) 4.01%; (Thailand/16681/1984, Concentration 99.9 uM, Number of replicates 2.0, Standard deviation 1.205952159714456 %) 8.22%.

As for `COc1cc(CS(=O)(=O)[C@H]2CCOC2)nc(N2CCNCC2)n1`, the inhibition was -1.03% (Thailand/16681/1984, Concentration 49.5 uM, Number of replicates 2.0, Standard deviation 1.1070979066439124 %); -1.02% (Thailand/16681/1984, Concentration 99.01 uM, Number of replicates 2.0, Standard deviation 1.1346713232438308 %); -0.488% (Thailand/16681/1984, Concentration 198.0 uM, Number of replicates 2.0, Standard deviation 0.23411375269961499 %).

For `CC1(C)CCC(CN2CCN(C(=O)C3CCN(c4ccc(C=O)cc4)CC3)CC2)=C(c2ccc(Cl)cc2)C1`, the inhibition under setting [1] is 14.6%.

As to `CS(=O)(=O)N1CCC(C(=O)Nc2nc3c(F)cccc3s2)CC1`, the inhibition amounted to 0.796% (Thailand/16681/1984, Concentration 49.5 uM, Number of replicates 2.0, Standard deviation 0.96531236791799 %); 0.997% (Thailand/16681/1984, Concentration 99.01 uM, Number of replicates 2.0, Standard deviation 0.9471689504241718 %); 0.83% (Thailand/16681/1984, Concentration 198.0 uM, Number of replicates 2.0, Standard deviation 0.2746253667085591 %).

As for `CC(C)(CO)NC(=O)c1cc(Cl)cc(NC(=O)c2cncc(N3CCOCC3)c2)c1`, the inhibition (Thailand/16681/1984, Concentration 49.5 uM, Number of replicates 2.0, Standard deviation 0.4474173856773207 %) was -0.376%; the inhibition (Thailand/16681/1984, Concentration 99.01 uM, Number of replicates 2.0, Standard deviation 1.505611595400152 %) was 1.35%; the inhibition (Thailand/16681/1984, Concentration 198.0 uM, Number of replicates 2.0, Standard deviation 2.954515575506412 %) stood at 3.92%.

In the case of `Cc1cc(CO)c2cccc(NC(=O)c3cc(C(=O)O)[nH]n3)c2n1`, the inhibition (Thailand/16681/1984, Concentration 49.95 uM, Number of replicates 2.0, Standard deviation 1.2262200734011628 %) is 6.16% and the inhibition (Thailand/16681/1984, Concentration 99.9 uM, Number of replicates 2.0, Standard deviation 1.3755281502367038 %) is 12.6%.

For the compound `Cc1cc(CO)c2cccc(Cc3cccc(C(=O)N4CCO[C@@H](CN)C4)c3)c2n1`, the inhibition by setting is: (Thailand/16681/1984, Concentration 49.95 uM, Number of replicates 2.0, Standard deviation 1.226020128751827 %) -8%; (Thailand/16681/1984, Concentration 99.9 uM, Number of replicates 2.0, Standard deviation 0.7100280635505346 %) 4.81%.

Regarding `C[C@H]1COCCN1C(=O)c1cc(Cl)ccc1NS(=O)(=O)c1ccc(Oc2ccccc2Cl)cc1`, the inhibition (Thailand/16681/1984, Concentration 49.5 uM, Number of replicates 2.0, Standard deviation 1.11087224122176 %) was 42.6%; the inhibition (Thailand/16681/1984, Concentration 99.01 uM, Number of replicates 2.0, Standard deviation 0.41977451897359047 %) is 79.8%; the inhibition (Thailand/16681/1984, Concentration 198.0 uM, Number of replicates 2.0, Standard deviation 0.050716482924917095 %) was 92.9%.

Consider `O=Cc1ccc(N2CCC(C(=O)N(Cc3ccccc3)[C@@H](CO)c3ccccc3)CC2)cc1`, for which the inhibition under setting [1] was 14.2%.

As a reminder, the inhibition is the change of the read-out against control, counted positive when it falls.

Source of the values: ChEMBL document CHEMBL5606460, “ASAP - DENV-2 NS2B-NS3 protease fluorescence single point” (2024).
